From the supplement of paper PMC7125110
Variants at the background level are over-represented here.

B1: glmS ribozyme (parent)
chain: AUAAAAGCGCCAGAACUACAGAAAUGUAGUUGACGAGGAGGAGGUUUAUCGAAUUUUCGGCGGAUGCCUCCAAA

Tests used:
Conditions in all cases: with glucosamine-6-phosphate
[1] = variants of: B1; experiment: kcat; higher = faster cleavage; RNA array
Method in brief: (§1)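 E. coli RNA polymerase transcribed barcoded ribozyme variants in situ on sequenced MiSeq chips, which were tracked via a hybridised Cy3 probe at 37 °C. Tiles were imaged over ~14 h after glucosamine-6-phosphate (40 μM to 10 mM) in HEPES/KCl/Mg(OAc)2 buffer was flowed in. Normalised per-tile medians were fit to one- or two-exponential decays for kobs, and kcat and KM came from weighted Michaelis–Menten fits.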

[2] = variants of: B1; experiment: self-cleavage kobs at 10000 uM GlcN6P; higher = faster cleavage; RNA array
Method in brief: as §1

[3] = variants of: B1; experiment: self-cleavage kobs at 160 uM GlcN6P; higher = faster cleavage; RNA array
Method in brief: as §1

[4] = variants of: B1; experiment: self-cleavage kobs at 640 uM GlcN6P; higher = faster cleavage; RNA array
Method in brief: as §1

[5] = variants of: B1; experiment: self-cleavage kobs at 40 uM GlcN6P; higher = faster cleavage; RNA array
Method in brief: as §1

[6] = variants of: B1; experiment: self-cleavage kobs at 2500 uM GlcN6P; higher = faster cleavage; RNA array
Method in brief: as §1

| Variant | kcat [1] [s⁻¹] | self-cleavage kobs at 10000 uM GlcN6P [2] [s⁻¹] | self-cleavage kobs at 160 uM GlcN6P [3] [s⁻¹] | self-cleavage kobs at 640 uM GlcN6P [4] [s⁻¹] | self-cleavage kobs at 40 uM GlcN6P [5] [s⁻¹] | self-cleavage kobs at 2500 uM GlcN6P [6] [s⁻¹] |
| --- | --- | --- | --- | --- | --- | --- |
| G13U G60U | < 1e-05 | < 1e-05 |  |  |  |  |
| A33U G62A | < 1e-05 |  | < 1e-05 |  |  |  |
| U31G G51C | < 1e-05 | < 1e-05 |  | < 1e-05 |  |  |
| A36U G51U | < 1e-05 | < 1e-05 |  |  | < 1e-05 | < 1e-05 |
| A48G C50U | < 1e-05 |  |  | < 1e-05 | < 1e-05 |  |
| G38C C71A | < 1e-05 | < 1e-05 |  |  |  |  |
| G13A C61G | < 1e-05 |  |  | < 1e-05 |  | < 1e-05 |
| U55G C61G | < 1e-05 |  |  |  |  |  |
| A6C G38A | < 1e-05 |  |  |  |  |  |
| C8U A12C | < 1e-05 | < 1e-05 |  | < 1e-05 | < 1e-05 | < 1e-05 |
| C8U A12U | < 1e-05 |  |  |  |  | < 1e-05 |
| A6G G7A C50U C58U | < 1e-05 |  |  |  | < 1e-05 |  |
| G38C G60C | < 1e-05 |  | < 1e-05 |  |  | < 1e-05 |
| G37A G59U | < 1e-05 | < 1e-05 | < 1e-05 | < 1e-05 |  |  |
| C34U U49C | < 1e-05 |  |  |  |  |  |
| A12U C61A | < 1e-05 |  |  |  |  |  |
| A53G C61A | < 1e-05 |  |  |  |  |  |
| C11U C61G | < 1e-05 |  |  |  |  |  |
| C11U C61A | < 1e-05 |  |  |  |  |  |
| C11A C50U | < 1e-05 |  |  |  |  |  |
| A36G C67G | < 1e-05 |  |  |  |  |  |
| U49A U56A | < 1e-05 |  |  | < 1e-05 |  |  |
| G29A C50U | < 1e-05 |  |  |  |  |  |
| A6U A36C | < 1e-05 | < 1e-05 |  | < 1e-05 |  |  |
| U54G U56A G63U | < 1e-05 |  | < 1e-05 |  |  | < 1e-05 |
| A36U C58A | < 1e-05 |  |  | < 1e-05 |  |  |

| Variant | kcat [1] [s⁻¹] | self-cleavage kobs at 10000 uM GlcN6P [2] [s⁻¹] | self-cleavage kobs at 160 uM GlcN6P [3] [s⁻¹] | self-cleavage kobs at 640 uM GlcN6P [4] [s⁻¹] | self-cleavage kobs at 40 uM GlcN6P [5] [s⁻¹] | self-cleavage kobs at 2500 uM GlcN6P [6] [s⁻¹] |
| --- | --- | --- | --- | --- | --- | --- |
| C34A U55G | < 1e-05 |  |  |  |  |  |
| C10G A64G | < 1e-05 |  |  | < 1e-05 |  |  |
| G7C G29C G32A | < 1e-05 |  | < 1e-05 | < 1e-05 | < 1e-05 |  |
| G51C G59C | < 1e-05 |  |  | < 1e-05 |  |  |
| G41A U57A | < 1e-05 |  |  | < 1e-05 | < 1e-05 |  |
| G38C U65C C71G | < 1e-05 |  | < 1e-05 |  |  |  |
| C10G | < 1e-05 |  |  |  | < 1e-05 |  |
| G41C G51U | < 1e-05 |  |  | < 1e-05 |  |  |
| A6U G37C | < 1e-05 |  |  |  | < 1e-05 |  |
| C10U U31C | < 1e-05 |  |  |  | < 1e-05 |  |
| G51U U56G | < 1e-05 | < 1e-05 |  |  |  | < 1e-05 |
| A14C U49C | < 1e-05 | < 1e-05 | < 1e-05 | < 1e-05 | < 1e-05 |  |
| G29A G38A | < 1e-05 |  |  | < 1e-05 |  |  |
| A15U G43A | < 1e-05 |  |  |  |  |  |
| C11A U49G U57G | < 1e-05 | < 1e-05 |  |  |  |  |
| A36U A53U | < 1e-05 |  |  | < 1e-05 |  |  |
| G38A U65C | < 1e-05 |  |  |  |  |  |
| G38U C58A | < 1e-05 |  |  |  |  |  |
| U46C C50A | < 1e-05 |  | < 1e-05 | < 1e-05 | < 1e-05 |  |
| C10A U55A | < 1e-05 |  | < 1e-05 |  | < 1e-05 |  |
| G37U C70U | < 1e-05 |  |  |  |  |  |
| G29U A48C C50U | < 1e-05 | < 1e-05 | < 1e-05 |  |  | < 1e-05 |
| G51A A52G | < 1e-05 |  |  |  | < 1e-05 |  |
| G7A G32C G43C | < 1e-05 |  |  | < 1e-05 |  |  |
| C8U G37C U57A | < 1e-05 |  |  |  |  |  |
| C34A A53G | < 1e-05 |  |  | < 1e-05 |  |  |

| Variant | kcat [1] [s⁻¹] | self-cleavage kobs at 10000 uM GlcN6P [2] [s⁻¹] | self-cleavage kobs at 160 uM GlcN6P [3] [s⁻¹] | self-cleavage kobs at 640 uM GlcN6P [4] [s⁻¹] | self-cleavage kobs at 40 uM GlcN6P [5] [s⁻¹] | self-cleavage kobs at 2500 uM GlcN6P [6] [s⁻¹] |
| --- | --- | --- | --- | --- | --- | --- |
| G29C G59A | < 1e-05 |  | < 1e-05 |  | < 1e-05 |  |
| C8G C11G G51U U57A C61A | < 1e-05 | < 1e-05 |  |  | < 1e-05 |  |
| C8U A36U | < 1e-05 | < 1e-05 | < 1e-05 | < 1e-05 | < 1e-05 |  |
| C10G G60A | < 1e-05 | < 1e-05 |  | < 1e-05 |  |  |
| A52C U65G | < 1e-05 |  | < 1e-05 | < 1e-05 | < 1e-05 |  |
| U31A G51U | < 1e-05 |  | < 1e-05 | < 1e-05 |  |  |
| G9U C11U | < 1e-05 | < 1e-05 |  |  |  |  |
| G41A G63C | < 1e-05 |  | < 1e-05 | < 1e-05 | < 1e-05 | < 1e-05 |
| A6C G7U C58G C71A | < 1e-05 |  |  |  |  |  |
| G13C A39U G40U | < 1e-05 |  |  | < 1e-05 |  |  |
| U57A G62U | < 1e-05 |  |  | < 1e-05 |  |  |
| G13A G62C | < 1e-05 | < 1e-05 | < 1e-05 | < 1e-05 | < 1e-05 | < 1e-05 |
| G37C G40A | < 1e-05 |  | < 1e-05 |  | < 1e-05 |  |
| G37C G40U | < 1e-05 |  | < 1e-05 | < 1e-05 | < 1e-05 |  |
| G51U U54G | < 1e-05 |  | < 1e-05 | < 1e-05 | < 1e-05 |  |
| G7A A15C | < 1e-05 |  |  |  | < 1e-05 | < 1e-05 |
| A36G U47G C71G | < 1e-05 |  |  | < 1e-05 |  |  |
| U54A C61A | < 1e-05 |  |  |  |  |  |
| G43A A52G | < 1e-05 |  | < 1e-05 |  |  |  |
| C10A C58A | < 1e-05 |  | < 1e-05 |  |  |  |
| G35U G51U | < 1e-05 |  | < 1e-05 | < 1e-05 | < 1e-05 | < 1e-05 |
| G38C C70U | < 1e-05 |  |  |  |  |  |
| G38C C70G | < 1e-05 |  |  |  |  | < 1e-05 |
| A6U C10G | < 1e-05 |  |  | < 1e-05 |  |  |
| G51U | < 1e-05 |  |  |  | < 1e-05 |  |
| G40U C58G | < 1e-05 |  | < 1e-05 | < 1e-05 | < 1e-05 |  |

| Variant | kcat [1] [s⁻¹] | self-cleavage kobs at 10000 uM GlcN6P [2] [s⁻¹] | self-cleavage kobs at 160 uM GlcN6P [3] [s⁻¹] | self-cleavage kobs at 640 uM GlcN6P [4] [s⁻¹] | self-cleavage kobs at 40 uM GlcN6P [5] [s⁻¹] | self-cleavage kobs at 2500 uM GlcN6P [6] [s⁻¹] |
| --- | --- | --- | --- | --- | --- | --- |
| C10U C61A | < 1e-05 |  |  |  | < 1e-05 |  |
| U49G C68A | < 1e-05 |  |  |  | < 1e-05 |  |
| G38A C50U | < 1e-05 | < 1e-05 |  |  | < 1e-05 |  |
| G35U A52G | < 1e-05 |  |  |  | < 1e-05 |  |
| A48C C70G | < 1e-05 |  | < 1e-05 |  | < 1e-05 |  |
| A15C C50U | < 1e-05 |  | < 1e-05 |  |  |  |
| A15C C50A | < 1e-05 |  |  |  |  |  |
| C34A G37C | < 1e-05 | < 1e-05 |  |  |  | < 1e-05 |
| G32U A48G | < 1e-05 |  | < 1e-05 | < 1e-05 | < 1e-05 |  |
| G13C G37U | < 1e-05 |  |  |  | < 1e-05 |  |
| U31A G60A | < 1e-05 |  |  |  |  |  |
| A48U C68G | < 1e-05 |  |  |  |  |  |
| C16U G51U | < 1e-05 | < 1e-05 |  | < 1e-05 |  |  |
| A14U G63C | < 1e-05 | < 1e-05 |  |  |  | < 1e-05 |
| G29U C68A | < 1e-05 |  |  |  | < 1e-05 |  |
| U55A C61A | < 1e-05 | < 1e-05 |  | < 1e-05 | < 1e-05 |  |
| G51U C70U | < 1e-05 |  |  |  |  |  |
| U31C G37C A48G U56A | < 1e-05 |  |  | < 1e-05 |  | < 1e-05 |
| G29A G59C | < 1e-05 |  |  |  |  | < 1e-05 |
| G51U U65C | < 1e-05 |  |  |  |  |  |
| G51U U65A | < 1e-05 |  | < 1e-05 |  |  |  |
| G38U C71A | < 1e-05 |  |  |  |  | < 1e-05 |
| G29U G38U | < 1e-05 |  |  |  |  | < 1e-05 |
| C10G C68U | < 1e-05 |  |  |  |  |  |
| C11A C34A | < 1e-05 | < 1e-05 | < 1e-05 |  |  | < 1e-05 |
| U54G G60C | < 1e-05 |  |  |  |  |  |
